Laboratory results published in a collection of fitness landscapes (doi:10.1126/science.1257360).
The list shows a part of the results.

B1: PhoQ; a variant is named by its letters at X, in order, P23837 (parent)
chain: MKKLLRLFFPLSLRVRFLLATAAVVLVLSLAYGMVALIGYSVSFDKTTFRLLRGESNLFYTLAKWENNKLHVELPENIDKQSPTMTLIYDENGQLLWAQRDVPWLMKMIQPDWLKSNGFHEIEADVNDTSLLLSGDHSIQQQLQEVREDDDDAEMTHSVAVNVYPATSRMPKLTIVVVDTIPVELKSSYMVWSWFIYVLSANLLLVIPLLWVAAWWSLRPIEALAKEVRELEEHNRELLNPATTRELTSLVRNLNRLLKSERERYDKYRTTLTDLTHSLKTPLXXLQXXLRSLRSEKMSVSDAEPVMLEQISRISQQIGYYLHRASMRGGTLLSRELHPVAPLLDNLTSALNKVYQRKGVNISLDISPEISFVGEQNDFVEVMGNVLDNACKYCLEFVEISARQTDEHLYIVVEDDGPGIPLSKREVIFDRGQRVDTLRPGQGVGLAVAREITEQYEGKIVAGESMLGGARMEVIFGRQHSAPKDE

Variants of: B1
Assay: enrichment ratio after two sorts for PhoP signalling (ratio (wild type AVST 3.29)); higher = more functional
Settings: with PhoP (E. coli)

| Variant | enrichment ratio |
| --- | --- |
| GLVT | ≤ 0.25 |
| QFCG | ≤ 0.25 |
| IPGI | ≤ 0.25 |
| DLLP | ≤ 0.25 |
| LAVL | ≤ 0.25 |
| KYTL | ≤ 0.25 |
| IETL | ≤ 0.25 |
| YMMN | ≤ 0.25 |
| MAHP | ≤ 0.25 |
| FPQS | ≤ 0.25 |
| KCPC | ≤ 0.25 |
| QDMC | ≤ 0.25 |
| AQKI | ≤ 0.25 |
| LVLE | ≤ 0.25 |
| ASCN | 15.3 |
| HQVC | ≤ 0.25 |
| WKET | ≤ 0.25 |
| QTIY | ≤ 0.25 |
| WQIA | ≤ 0.25 |
| LFYQ | ≤ 0.25 |
| RCTT | ≤ 0.25 |
| VNIV | ≤ 0.25 |
| DCHP | ≤ 0.25 |
| VNTG | ≤ 0.25 |

| Variant | enrichment ratio |
| --- | --- |
| EPHY | ≤ 0.25 |
| TDIG | 2.81 |
| AKMA | ≤ 0.25 |
| FGPW | ≤ 0.25 |
| HPTC | ≤ 0.25 |
| HLAK | ≤ 0.25 |
| AYTN | ≤ 0.25 |
| YQME | ≤ 0.25 |
| DISF | ≤ 0.25 |
| YWYV | ≤ 0.25 |
| ITHI | ≤ 0.25 |
| WTND | ≤ 0.25 |
| LGLC | 0.714 |
| PWKC | ≤ 0.25 |
| FPKN | ≤ 0.25 |
| LPAH | ≤ 0.25 |
| MGYI | 13.6 |
| HHCY | ≤ 0.25 |
| VGYE | ≤ 0.25 |
| KDFL | ≤ 0.25 |
| GWAW | ≤ 0.25 |
| IQNS | ≤ 0.25 |
| KDKL | ≤ 0.25 |
| RVSR | ≤ 0.25 |

| Variant | enrichment ratio |
| --- | --- |
| NCGG | ≤ 0.25 |
| VPIG | ≤ 0.25 |
| SYDN | ≤ 0.25 |
| FVCD | ≤ 0.25 |
| AYCA | ≤ 0.25 |
| TGYA | 5.15 |
| WRVK | ≤ 0.25 |
| ATKN | ≤ 0.25 |
| IMIR | ≤ 0.25 |
| ANSN | 10.7 |
| ANCE | 56 |
| PEWC | ≤ 0.25 |
| MGYQ | 14 |
| VFDA | ≤ 0.25 |
| DIEQ | ≤ 0.25 |
| YIIW | ≤ 0.25 |
| PEFL | ≤ 0.25 |
| TQEV | 5.41 |
| NLAI | ≤ 0.25 |
| FIRK | ≤ 0.25 |
| PWQY | ≤ 0.25 |
| SKRE | ≤ 0.25 |
| FPVS | ≤ 0.25 |
| SPHE | ≤ 0.25 |

| Variant | enrichment ratio |
| --- | --- |
| MGTI | 12.5 |
| IPWM | ≤ 0.25 |
| RWKD | ≤ 0.25 |
| DDQS | ≤ 0.25 |
| SPEL | ≤ 0.25 |
| DLTI | ≤ 0.25 |
| HSHR | ≤ 0.25 |
| IQQG | ≤ 0.25 |
| SWAT | ≤ 0.25 |
| TWDT | ≤ 0.25 |
| TVSL | 14.4 |
| LRWK | ≤ 0.25 |
| WMKM | ≤ 0.25 |
| YQFA | ≤ 0.25 |
| RLQP | ≤ 0.25 |
| GHKY | ≤ 0.25 |
| RKFS | ≤ 0.25 |
| AEFL | 9.72 |
| AYWR | ≤ 0.25 |
| NKLK | ≤ 0.25 |
| LSPK | ≤ 0.25 |
| GPQS | ≤ 0.25 |
| MMEA | ≤ 0.25 |
| QNPL | ≤ 0.25 |

| Variant | enrichment ratio |
| --- | --- |
| DWSF | ≤ 0.25 |
| AAFD | ≤ 0.25 |
| DADV | ≤ 0.25 |
| NGQS | ≤ 0.25 |
| GSID | ≤ 0.25 |
| KHCY | ≤ 0.25 |
| YPPH | ≤ 0.25 |
| FYTD | ≤ 0.25 |
| QYWV | ≤ 0.25 |
| RRQS | ≤ 0.25 |
| NNTA | ≤ 0.25 |
| LECQ | 0.698 |
| MENN | ≤ 0.25 |
| GEFQ | ≤ 0.25 |
| QNYS | ≤ 0.25 |
| FWDG | ≤ 0.25 |
| KKSD | ≤ 0.25 |
| QDMY | ≤ 0.25 |
| FGLC | 7.57 |
| GSCP | ≤ 0.25 |
| PGMI | ≤ 0.25 |
| NWDY | ≤ 0.25 |
| NFWF | ≤ 0.25 |
| LTKR | ≤ 0.25 |

| Variant | enrichment ratio |
| --- | --- |
| HDRW | ≤ 0.25 |
| RPTE | ≤ 0.25 |
| EVPM | ≤ 0.25 |
| CPHI | ≤ 0.25 |
| TIDY | ≤ 0.25 |
| FYFG | ≤ 0.25 |
| QDAG | ≤ 0.25 |
| YHGI | ≤ 0.25 |
| NPMW | ≤ 0.25 |
| TQID | ≤ 0.25 |
| NCVA | ≤ 0.25 |
| RKFC | ≤ 0.25 |
| SYIH | ≤ 0.25 |
| HLIK | ≤ 0.25 |
| RNFS | ≤ 0.25 |
| MDYR | ≤ 0.25 |
| NTGM | ≤ 0.25 |
| TRMH | ≤ 0.25 |
| VYDR | ≤ 0.25 |
| DIDD | ≤ 0.25 |
| KPTI | ≤ 0.25 |
| PFRT | ≤ 0.25 |
| EQIG | ≤ 0.25 |
| MDCY | ≤ 0.25 |

| Variant | enrichment ratio |
| --- | --- |
| LFNK | 0.702 |
| MHGG | ≤ 0.25 |
| FITC | ≤ 0.25 |
| YFQN | ≤ 0.25 |
| RKLT | ≤ 0.25 |
| RPHR | ≤ 0.25 |
| RATV | ≤ 0.25 |
| FIWQ | ≤ 0.25 |
| TNQH | 15 |
| YMWF | ≤ 0.25 |
| SMYW | ≤ 0.25 |
| HKIR | ≤ 0.25 |
| HAGD | ≤ 0.25 |
| PEFC | ≤ 0.25 |
| DINP | ≤ 0.25 |
| WNPK | ≤ 0.25 |
| YYPL | ≤ 0.25 |
| REDW | ≤ 0.25 |
| EHTA | ≤ 0.25 |
| LGRR | ≤ 0.25 |
| KCMA | ≤ 0.25 |
| EFCP | ≤ 0.25 |
| TDCR | 4.57 |
| ALMT | ≤ 0.25 |

| Variant | enrichment ratio |
| --- | --- |
| DYRW | ≤ 0.25 |
| NYGL | ≤ 0.25 |
| ADHK | ≤ 0.25 |
| RIWI | ≤ 0.25 |
| TEQF | 7.26 |
| TTFG | 0.578 |
| WDKP | ≤ 0.25 |
| IHSS | ≤ 0.25 |
| WLSL | ≤ 0.25 |
| RLWR | ≤ 0.25 |
| EMHW | ≤ 0.25 |
| LYMI | 0.418 |
| GFAF | ≤ 0.25 |
| NKET | ≤ 0.25 |
| TWAL | ≤ 0.25 |
| MDYP | ≤ 0.25 |
| HPWE | ≤ 0.25 |
| PDML | ≤ 0.25 |
| NFFS | ≤ 0.25 |
| AGMV | 4.64 |
| WHFL | ≤ 0.25 |
| YREH | ≤ 0.25 |
| QEPW | ≤ 0.25 |
| ERGS | ≤ 0.25 |

| Variant | enrichment ratio |
| --- | --- |
| RPPI | ≤ 0.25 |
| IPFA | ≤ 0.25 |
| SLAP | ≤ 0.25 |
| QLLW | ≤ 0.25 |
| EDDL | ≤ 0.25 |
| GEEV | ≤ 0.25 |
| LPAT | ≤ 0.25 |
| NITD | ≤ 0.25 |
| YVYD | ≤ 0.25 |
| DVAC | ≤ 0.25 |
| QDVR | ≤ 0.25 |
| PLRK | ≤ 0.25 |
| AKNT | ≤ 0.25 |
| GGHC | ≤ 0.25 |
| VGIS | ≤ 0.25 |
| GKML | 2.04 |
| TEYH | 20.6 |
| LTGT | ≤ 0.25 |
| WHIQ | ≤ 0.25 |
| AHGD | ≤ 0.25 |
| QQKE | ≤ 0.25 |
| TVFW | ≤ 0.25 |
| LHMN | ≤ 0.25 |
| QFKN | ≤ 0.25 |

| Variant | enrichment ratio |
| --- | --- |
| FGCE | ≤ 0.25 |
| AALV | 12.9 |
| VWHA | ≤ 0.25 |
| LYEG | ≤ 0.25 |
| VMGP | ≤ 0.25 |
| PPIA | ≤ 0.25 |
| PELI | ≤ 0.25 |
| MANL | ≤ 0.25 |
| QQHE | ≤ 0.25 |
| FKVP | ≤ 0.25 |
| WILY | ≤ 0.25 |
| QDQQ | ≤ 0.25 |
| YGKK | ≤ 0.25 |
| KICL | ≤ 0.25 |
| GAWP | ≤ 0.25 |
| ARMG | ≤ 0.25 |
| YNKA | ≤ 0.25 |
| VVAV | ≤ 0.25 |
| CLTV | ≤ 0.25 |
| MFCA | ≤ 0.25 |
| MASA | ≤ 0.25 |
| PWMQ | ≤ 0.25 |
| ANIY | 0.312 |
| DENC | ≤ 0.25 |

| Variant | enrichment ratio |
| --- | --- |
| KVAC | ≤ 0.25 |
| RVYK | ≤ 0.25 |
| ESTH | ≤ 0.25 |
| ALDP | ≤ 0.25 |
| MRLM | ≤ 0.25 |
| PATE | ≤ 0.25 |
| THWL | 0.311 |
| ESCQ | ≤ 0.25 |
| KGRN | ≤ 0.25 |
| TAYC | 11.3 |
| DGFE | ≤ 0.25 |
| GATG | ≤ 0.25 |
| GVFH | ≤ 0.25 |
| FWYW | ≤ 0.25 |
| SWFN | 0.515 |
| FLNP | ≤ 0.25 |
| VTVA | ≤ 0.25 |
| DQCI | ≤ 0.25 |
| AADG | ≤ 0.25 |
| LIWK | ≤ 0.25 |
| HYTI | ≤ 0.25 |
| SAKG | ≤ 0.25 |
| TMTS | 11.7 |
| PGKC | ≤ 0.25 |

| Variant | enrichment ratio |
| --- | --- |
| LLDH | ≤ 0.25 |
| YSLA | 6.93 |
| VAPC | ≤ 0.25 |
| NNFV | ≤ 0.25 |
| NMNS | ≤ 0.25 |
| RCHC | ≤ 0.25 |
| PDAD | ≤ 0.25 |
| RWQH | ≤ 0.25 |
| WTAN | ≤ 0.25 |
| IGGM | ≤ 0.25 |
| YFFD | ≤ 0.25 |
| PIKM | ≤ 0.25 |
| YSYS | ≤ 0.25 |
| VCTS | ≤ 0.25 |
| IQCP | ≤ 0.25 |
| ASAK | 1.25 |
| HEKW | ≤ 0.25 |
| LYPW | ≤ 0.25 |
| ISTQ | ≤ 0.25 |
| MKDP | ≤ 0.25 |
| THWH | 2 |
| DAKM | ≤ 0.25 |
| IYGQ | ≤ 0.25 |
| RTAT | ≤ 0.25 |

| Variant | enrichment ratio |
| --- | --- |
| IPER | ≤ 0.25 |
| RANM | ≤ 0.25 |
| NPWS | ≤ 0.25 |
| TPPF | ≤ 0.25 |
| ILWD | ≤ 0.25 |
| SDGC | ≤ 0.25 |
| QAKN | ≤ 0.25 |
| SKHC | ≤ 0.25 |
| ESAS | ≤ 0.25 |
| AFYG | ≤ 0.25 |
| MDMC | ≤ 0.25 |
| NCMG | ≤ 0.25 |
| NRNI | ≤ 0.25 |
| NAHF | ≤ 0.25 |
| FLPA | ≤ 0.25 |
| MCNS | ≤ 0.25 |
| VARV | ≤ 0.25 |
| PWCA | 0.76 |
